Assay results: PubChem BioAssay AID588342 (National Center for Advancing Translational Sciences (NCATS), 2011)
Values joined by “and” are separate entries in the source; they are usually repeats but may differ in a detail not shown here. Identical values can stand only once. The campaign covered roughly 360,000 compounds. About 25,000 (6.9%) were called active. The shares of active, inactive and inconclusive entries below differ from those in the screen. The call rests on the fitted dose curve; in most records, active means well fitted inhibition curve with a large enough effect; inconclusive means small, poorly fitted or top-dose-only effect; inactive means flat fitted curve, though single readings scatter. Where the call is inconclusive, the potency comes from a doubtful curve fit.

Molecular target: Luciferin 4-monooxygenase (Photinus pyralis) (UniProt P08659)
UniProt P08659, sequence (P08659 whole entry, looked up): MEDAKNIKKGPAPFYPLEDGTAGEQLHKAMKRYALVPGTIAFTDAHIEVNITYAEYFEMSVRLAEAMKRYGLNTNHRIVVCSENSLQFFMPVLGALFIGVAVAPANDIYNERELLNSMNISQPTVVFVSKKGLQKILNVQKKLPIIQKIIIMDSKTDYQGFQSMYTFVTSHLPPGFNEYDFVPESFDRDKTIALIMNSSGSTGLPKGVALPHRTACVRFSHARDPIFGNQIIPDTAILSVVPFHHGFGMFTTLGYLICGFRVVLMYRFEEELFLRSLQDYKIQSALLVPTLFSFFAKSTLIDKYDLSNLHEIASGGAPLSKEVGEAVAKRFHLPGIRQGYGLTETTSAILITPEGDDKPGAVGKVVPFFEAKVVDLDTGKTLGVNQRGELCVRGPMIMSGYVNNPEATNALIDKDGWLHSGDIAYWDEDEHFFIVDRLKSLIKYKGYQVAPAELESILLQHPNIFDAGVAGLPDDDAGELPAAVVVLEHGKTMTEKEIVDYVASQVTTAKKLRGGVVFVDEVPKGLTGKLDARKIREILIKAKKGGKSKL
Experiment: qHTS profiling assay for firefly luciferase inhibitor/activator using purifed enzyme and Km concentrations of substrates (counterscreen for miR-21 project); further: nearly all actives have a fitted effect of over 55% in size
Conditions: purified FLuc, luminescence inhibition; series mostly up to 57.5 µM
Summary of the method: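 Purified P. pyralis luciferase (10nM final) with 10uM D-luciferin and 10uM ATP (Km levels) in 50mM Tris acetate pH 7.5, 10mM Mg acetate, 0.01% Tween-20, 0.05% BSA; qHTS 6-point titration, ~60 µM downward; luminescence read.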
Potency means the concentration at half of the fitted maximal effect; tags describe the fitted curve by direction and shape.

Row | SMILES | Potency
1 | CCCN1CCC(=NNc2ccc(C(=O)O)cc2)CC1 | inconclusive: 37.9 µM [inhibitor, single point]
2 | O=C(NCc1cc([N+](=O)[O-])ccc1O)c1cccnc1Sc1ccc(Cl)cc1 | inconclusive: 37.9 µM [inhibitor, single point]
3 | COc1ccc(CCCc2nnc(SCC(=O)Nc3cccc(C)c3)o2)cc1 | inconclusive: 26.9 µM [inhibitor, single point] and inconclusive: 19 µM [inhibitor, partial curve]
4 | C=CCOC(=O)C1=C(C)NC(=O)NC1c1cn(-c2ccccc2)nc1-c1cccs1 (stereo not drawn) | inactive
5 | Cc1nn(-c2ccc(Cl)c(Cl)c2Cl)c(=O)c2ccccc12 | inactive
6 | CCOC(=O)c1ccc(-c2ccc(/C=C(\C#N)c3nc4ccc(C)cc4[nH]3)o2)cc1 | inactive
7 | C/C(=N\NC(=O)COc1ccc2ccccc2c1)c1cccs1 | inconclusive: 37.9 µM [inhibitor, partial curve, poor fit]
8 | CC(C)(C)c1ccc(C(=O)Nc2ccccc2NC(=O)c2ccco2)cc1 | active: 19 µM
9 | CCOc1ccc(C(=O)CSc2nnc3ccccn23)cc1 | active: 3.01 µM
10 | COc1ccc(CNCc2cc3c(cc2[N+](=O)[O-])OCO3)cc1 | inconclusive: 15.1 µM [inhibitor, partial curve]
11 | Cc1cccc(C)c1OCc1cc(C(=O)N2CCCCCCC2)no1 | inconclusive: 30.1 µM [inhibitor, partial curve, poor fit]
12 | CN(C)S(=O)(=O)Oc1cccc(C(=O)Nc2ccccc2Cl)c1 | active: 21.3 µM
13 | O=C(CSc1nnc2ccccn12)N1CCc2ccccc2C1 | inconclusive: 21.3 µM [inhibitor, partial curve, poor fit]
14 | COc1ccc(OC)c(CNC(=O)CN(c2ccc(C)cc2)S(=O)(=O)N(C)C)c1 | inactive
15 | Cc1ccc(C(C)C)c(OCC(=O)OCc2c(C)noc2C)c1 | inconclusive: 10.7 µM [inhibitor, partial curve, poor fit]
16 | C=CCn1c(C)cc(C2=NNC(=NCC)SC2)c1C | active: 0.151 µM
17 | N/C(=N\c1nc2ccccc2o1)NC(=O)c1ccccc1F | active: 8.49 µM
18 | COc1ccc(-c2nnc(SCC(=O)Nc3cc(F)ccc3C)o2)cc1 | inconclusive: 15.1 µM [inhibitor, partial curve, poor fit]
19 | Cc1cccc(C(=O)c2c(N)sc3c2CCC(C)C3)c1 (stereo not drawn) | active: 21.3 µM
20 | CC(=O)N1CCC2(CC1)CC(=O)c1cc(OCC(=O)NCc3ccc(C)cc3)ccc1O2 | inconclusive: 30.1 µM [inhibitor, partial curve, poor fit]
21 | CCC(C)c1ccc(OCc2ccc(C(=O)O)o2)cc1 (stereo not drawn) | active: 3.01 µM
22 | Nc1cc(=O)[nH]c(SC/C=C/c2ccccc2)n1 | inconclusive: 30.1 µM [inhibitor, partial curve, poor fit]
23 | COc1ccc2c(c1)c1nnc(SCC(=O)N3CCCCC3C)nc1n2C (stereo not drawn) | inconclusive: 23.9 µM [inhibitor, partial curve, poor fit]

Row | SMILES | Potency
24 | O=C(Cn1c(=O)oc2cc(S(=O)(=O)N3CCCCCC3)ccc21)Nc1ccc(F)cc1F | inconclusive: 12 µM [inhibitor, partial curve, poor fit]
25 | O=C(Nc1cc2c(cc1C(=O)c1cccc(Br)c1)OCCO2)c1ccccc1F | inactive
26 | O=C(CSc1ccccc1)Nc1nc2ccccc2[nH]1 | inconclusive: 16.9 µM [inhibitor, partial curve]
27 | CC(C)CC(=O)NC(=S)Nc1sc2c(c1C(N)=O)CCC2 | inconclusive: 1.9 µM [inhibitor, full curve, poor fit]
28 | COc1ccc(-c2cn3cccnc3n2)cc1NC(=O)C(C)Oc1ccccc1 (stereo not drawn) | active: 26.9 µM
29 | Cc1cc(C)cc(-n2c(C)cc(C(=O)C(=O)Nc3nnc(C)s3)c2C)c1 | inactive
30 | COc1ccc(O)c(/C=C(\C#N)C(=O)Nc2ccccn2)c1 | active: 2.39 µM
31 | COc1cccc(/C=N/NC(=O)c2ccc(CN3c4cccc5cccc(c45)S3(=O)=O)cc2)c1 | inactive
32 | O=C(Nc1ncc2c(n1)-c1ccccc1CC2)c1ccccc1 | inconclusive: 23.9 µM [inhibitor, partial curve, poor fit]
33 | Cc1ccc(-n2ncc3c(=O)n(CC(=O)N(C)C)cnc32)cc1C | inconclusive: 37.9 µM [inhibitor, partial curve, poor fit]
34 | O=C(NNC(=O)c1cc(OCC(F)(F)F)ccc1OCC(F)(F)F)c1cccc(C(F)(F)F)c1 | inconclusive: 42.6 µM [inhibitor, partial curve, poor fit]
35 | Cc1cccc(C)c1NC(=O)Cn1c(=O)n(CCCS(=O)(=O)C2CCCCC2)c(=O)c2ccccc21 | inactive
36 | O=C(Nc1ccc2c(c1)OCCO2)c1ccc(Br)c(S(=O)(=O)N2CCOCC2)c1 | inconclusive: 26.9 µM [inhibitor, single point]
37 | Cc1cccc(N2CCN(c3ccc(C(=O)O)cc3NC(=O)c3cccc(Cl)c3)CC2C)c1 (stereo not drawn) | inconclusive: 19 µM [inhibitor, partial curve, poor fit]
38 | CCOC(=O)c1c(NC(=O)C2=C(C)NC(=S)NC2c2ccccc2C(F)(F)F)sc(C)c1C (stereo not drawn) | inactive
39 | Cc1ccc(C(=O)Oc2ccc(Cl)c3cccnc23)cc1[N+](=O)[O-] | inconclusive: 30.1 µM [inhibitor, single point]
40 | CC(=O)Nc1ccc(C(=O)COC(=O)C2CC3CCCC(C2)C3=O)cc1 (stereo not drawn) | inactive
41 | O=C(CSc1nccn1C1CCCC1)Nc1cccc(F)c1 | inconclusive: 30.1 µM [inhibitor, partial curve, poor fit]
42 | O=C(Nc1ncccn1)c1cc(-c2cccc(Br)c2)nc2ccccc12 | active: 26.9 µM
43 | CN(C)c1ccc(C2CC(=O)C=C(Nc3ccccc3N)C2)cc1 (stereo not drawn) | inconclusive: 16.9 µM [inhibitor, partial curve]
44 | CC(C(=O)NC1C=CS(=O)(=O)C1)N1C(=O)/C(=C\c2ccccc2)SC1=S (stereo not drawn) | inconclusive: 30.1 µM [inhibitor, partial curve, poor fit]
45 | COc1ccc(NC2=CC(=O)CC(c3ccccc3)C2)c(OC)c1 (stereo not drawn) | inconclusive: 37.9 µM [inhibitor, partial curve, poor fit]
46 | CSc1nsc(/C=C/Nc2ccc(C)cc2)c1C#N | active: 1.35 µM

Row | SMILES | Potency
47 | Cn1c(=O)c(=O)n(C)c2cc(S(=O)(=O)Nc3ccc(OC(F)(F)F)cc3)ccc21 | inactive
48 | N/C(=N\OC(=O)c1cc(-c2ccccc2)nc2ccccc12)c1ccc(Cl)cc1 | inconclusive: 23.9 µM [inhibitor, single point]
49 | COc1ccc2occ(C(=O)c3coc4ccc(O)c(CN(C)C)c34)c2c1 | inactive
50 | COc1cc(-c2nc(-c3ccccn3)no2)cc(OC)c1OC | inconclusive: 16.9 µM [inhibitor, partial curve]
51 | COCCn1c(SCC(=O)NCc2ccc(F)cc2)nc2ccccc21 | inactive
52 | COc1ccc(C2NC(=S)NC3=C2CCc2ccccc23)cc1OC (stereo not drawn) | inactive
53 | Cc1ccc(NC(=O)NC(=O)N(C(C)C)S(=O)(=O)c2ccc(C)cc2)cc1 | inconclusive: 23.9 µM [inhibitor, partial curve]
54 | COc1ccc(-c2cn3nc(N4CCCC(C(=O)Nc5ccccc5OC)C4)sc3n2)cc1 (stereo not drawn) | inconclusive: 8.49 µM [inhibitor, partial curve]
55 | O=C(O)c1ccccc1N/N=C/C1=C(N2CCOCC2)C(=C\c2ccccc2)/CC1 | inconclusive: 21.3 µM [inhibitor, partial curve, poor fit]
56 | COc1ccc2c(c1O)C(=O)c1ccccc1C2=O | inconclusive: 9.53 µM [inhibitor, partial curve, poor fit]
57 | O=S(=O)(c1ccccc1)N1CCCN(S(=O)(=O)c2ccccc2)CC1 | inactive
58 | Cc1cc(C(=O)CS(=O)(=O)c2ccccc2)cc(C)c1O | inconclusive: 19 µM [inhibitor, partial curve]
59 | COc1ccc(-c2noc(N3CCC(C(=O)N4CCN(c5ccccc5F)CC4)CC3)n2)cc1 | inactive
60 | S=C1NCN(Cc2ccco2)CN1c1ccccc1 | inconclusive: 37.9 µM [inhibitor, partial curve, poor fit]
61 | O=C(Nc1ccc2c(c1)OCO2)c1cc(-c2ccncc2)nc2ccccc12 | inconclusive: 37.9 µM [inhibitor, partial curve, poor fit]
62 | O=C(N/N=C/c1coc2ccccc2c1=O)c1cn(-c2ccccc2)nc1-c1ccc(F)cc1 | inconclusive: 10.7 µM [inhibitor, partial curve, poor fit]
63 | COc1ccc(-c2csc(NC(=O)c3ccccc3NS(=O)(=O)c3ccc(C)cc3)n2)cc1 | inconclusive: 42.6 µM [inhibitor, partial curve, poor fit]
64 | O=C1C=CC(=O)N1CCNc1ncc(C(F)(F)F)cc1Cl | inconclusive: 10.7 µM [inhibitor, partial curve]
65 | O=C(Nc1ccccc1F)c1cc2nc(C(F)F)cc(C(F)F)n2n1 | inconclusive: 19 µM [inhibitor, partial curve, poor fit]
66 | COc1ccc(/C=C/C(=O)NCCSCc2ccco2)cc1 | active: 16.9 µM
67 | COc1cccc(Nc2nc(C)nc3c2oc2ccccc23)c1 | inconclusive: 33.8 µM [inhibitor, single point]
68 | COCc1cc(C)nc2sc3c(c12)NC(c1ccc(O)c(OC)c1)N(c1ccccc1)C3=O (stereo not drawn) | inconclusive: 13.5 µM [inhibitor, partial curve]
